“And” between values parts separate entries of the source, which are not always exact repeats. Equal values may be shown once. About 31,000 (8.9%) of roughly 350,000 compounds were called active. This list was built around the results that the source calls inconclusive (neither active nor inactive); the mix of calls is not that of the screen. Calls follow the shape of the dose curve; as a rule, active = well fitted inhibition curve with a large enough effect; inconclusive = small, poorly fitted or top-dose-only effect; inactive = no such curve, though single readings can be large or run the other way. A potency beside an inconclusive call is a rough fit, not a confirmed value. Some structures have more than one record in an assay (separate samples or runs), and their calls can disagree.
target: Histone-lysine N-methyltransferase EHMT2 (Homo sapiens) (UniProt Q96KQ7); assay: qHTS Assay for Inhibitors of Histone Lysine Methyltransferase G9a; details: G9a H3K9 monomethylation, AlphaScreen, 2 h; activity, negative = inhibition: at 59 µM (top of the series) unless noted; also: nearly all actives have a fitted effect of over 75% in size
Sequence of UniProt Q96KQ7 (Q96KQ7 whole entry, looked up): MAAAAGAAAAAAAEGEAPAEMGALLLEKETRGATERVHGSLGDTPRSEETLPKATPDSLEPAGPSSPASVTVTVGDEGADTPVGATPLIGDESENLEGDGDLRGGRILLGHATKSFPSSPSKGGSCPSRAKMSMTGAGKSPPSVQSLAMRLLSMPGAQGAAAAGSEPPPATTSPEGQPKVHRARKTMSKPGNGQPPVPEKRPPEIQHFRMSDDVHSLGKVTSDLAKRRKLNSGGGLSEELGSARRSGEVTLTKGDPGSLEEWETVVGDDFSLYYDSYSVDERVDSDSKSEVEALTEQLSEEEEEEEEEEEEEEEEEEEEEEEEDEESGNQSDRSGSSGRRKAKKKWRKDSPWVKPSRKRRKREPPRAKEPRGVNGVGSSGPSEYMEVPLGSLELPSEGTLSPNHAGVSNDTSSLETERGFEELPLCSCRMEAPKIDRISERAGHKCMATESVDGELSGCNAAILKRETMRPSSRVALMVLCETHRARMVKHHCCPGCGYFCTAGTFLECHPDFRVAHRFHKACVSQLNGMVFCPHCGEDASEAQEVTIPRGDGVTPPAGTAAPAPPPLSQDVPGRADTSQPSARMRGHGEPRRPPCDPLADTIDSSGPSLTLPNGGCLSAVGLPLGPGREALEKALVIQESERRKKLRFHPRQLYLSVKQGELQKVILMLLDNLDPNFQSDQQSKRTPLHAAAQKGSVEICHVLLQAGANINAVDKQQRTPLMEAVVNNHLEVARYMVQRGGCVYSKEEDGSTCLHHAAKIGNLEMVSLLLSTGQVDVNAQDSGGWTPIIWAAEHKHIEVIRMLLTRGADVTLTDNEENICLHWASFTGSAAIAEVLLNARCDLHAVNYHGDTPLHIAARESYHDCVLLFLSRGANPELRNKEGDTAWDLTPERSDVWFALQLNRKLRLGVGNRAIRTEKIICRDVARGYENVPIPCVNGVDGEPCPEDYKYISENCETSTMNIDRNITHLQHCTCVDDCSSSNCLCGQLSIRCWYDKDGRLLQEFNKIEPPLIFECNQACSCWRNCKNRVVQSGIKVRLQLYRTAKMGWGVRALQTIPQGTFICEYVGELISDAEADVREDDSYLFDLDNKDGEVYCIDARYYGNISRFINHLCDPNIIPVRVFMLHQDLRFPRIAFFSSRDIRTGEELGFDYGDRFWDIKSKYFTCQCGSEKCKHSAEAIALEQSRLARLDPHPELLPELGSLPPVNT
In short: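 Step 1: enzyme (final 20 nM) with compound, 15 min RT. Step 2: substrate peptide 500 nM and SAM 20 uM, 2 h RT. Step 3: anti-H3K9me1 antibody and AlphaScreen beads, 10 min, then plate read.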
% is scaled to controls: 0 for no effect and ±100 for the full control effect; potency is read from the fitted curve at half-maximal effect; tags tell the direction and shape of the fitted curve.

Row | Structure (SMILES) | Potency | activity, negative = inhibition
1 | CC1CCC(N(C)C2CCN(C)CC2)CC1 (stereo unspecified) | inconclusive: 56.2 µM [inhibitor, single point] | –
2 | Cc1cccc(-n2c(O)c(/C=N/Nc3nc4c(c(=O)n(C)c(=O)n4C)n3C)c(=O)[nH]c2=S)c1 | inconclusive: 17.8 µM [inhibitor, single point] | –
3 | O=c1c2ccccc2nc(/C=C/c2ccc(F)cc2)n1-c1ccccn1 | inconclusive: 11.2 µM [inhibitor, full curve] | –
4 | CCOc1ccc(N2C(=O)NC(=O)/C(=C\c3cc(OC)c(OC)cc3[N+](=O)[O-])C2=O)cc1 | active: 17.8 µM | –
5 | Cc1nn(Cc2ccccc2)c(Cl)c1C(=O)NC1CCCc2ccccc21 (stereo unspecified) | inconclusive: 35.5 µM [inhibitor, partial curve, poor fit] | –
6 | CC(C)C12CN3CC(C(C)C)(CN(C1)C3c1ccccn1)C2=O (stereo unspecified) | active: 0.398 µM | –
7 | O=C(O)/C=C\C(=O)Nc1ccc(Oc2ccc(Br)cc2)cc1 | inconclusive: 39.8 µM [inhibitor, partial curve] | –
8 | COc1ccc(CCNCc2ccccc2)cc1 | – | inactive: 5.15% [at 2.33 µM]
9 | CN1CCN(c2nc(Cl)ncc2F)CC1 | inconclusive: 50.1 µM [inhibitor, partial curve, poor fit] | –
10 | Cc1ccccc1-n1c(O)c(/C=N/N2CCOCC2)c(=O)[nH]c1=S | inconclusive: 50.1 µM [inhibitor, partial curve, poor fit] | –
11 | Cc1nn(-c2ccccc2)c2c1P(=O)(O)/C(=C1\N(C)c3ccccc3C1(C)C)C=N2 | inconclusive: 89.1 µM [inhibitor, single point] | –
12 | O=C(Cc1ccccc1)Oc1ccccc1N1C(=O)CCC1=O | inconclusive: 50.1 µM [inhibitor, partial curve, poor fit] | –
13 | CCOC(=O)N(c1ccccc1)P1(=S)OCCO1 | inconclusive: 3.16 µM [inhibitor, single point] | –
14 | Cc1cccc(-c2nc(CN3C(=O)CN=C(c4ccccc4)c4ccccc43)c(C)o2)c1 | inconclusive: 31.6 µM [inhibitor, single point] | –
15 | O=C1N=C(N2CCCCC2)SC1=C1CCCCC1 | active: 25.1 µM | –
16 | c1ccc2sc(C3CCNCC3)nc2c1 | inconclusive: 44.7 µM [inhibitor, partial curve, poor fit] | –
17 | O=S1(=O)N(Cc2ccc(F)cc2)CCCN1Cc1ccccc1Cl | inactive | –
18 | OC(Cn1c2ccccc2c2ccccc21)C[n+]1ccccc1 (stereo unspecified) | inactive | –
19 | CN1[C@@H](CC(=O)c2ccccc2)CCC[C@H]1C[C@H](O)c1ccccc1 | inactive | –
20 | COc1ccc(OP(=O)(Nc2ccccc2)Nc2ccccc2)cc1 | inconclusive: 35.5 µM [inhibitor, single point] | –
21 | Cc1ccc(-n2c(O)c(C=NCCCn3ccnc3)c(=O)[nH]c2=O)cc1 | inactive | –
22 | O=C(c1c[nH]cc1-c1ccccc1)c1cccc2ccccc12 | active: 25.1 µM | –
23 | [O-]C1=N/[N+](=C/c2ccc(Cl)cc2)CC1 | active: 8.91 µM | –
24 | Cc1cc(/C=C2\C(=O)NC(=O)N(c3ccc(Cl)cc3)C2=O)c(C)n1-c1sc2c(c1C#N)CCCC2 | inconclusive: 28.2 µM [inhibitor, single point] | –

Row | Structure (SMILES) | Potency | activity, negative = inhibition
25 | NC1CCCCC1N=Cc1c(O)n(CCc2ccc(F)cc2)c(=O)[nH]c1=O (stereo unspecified) | active: 1 µM | –
26 | Cn1c(=O)n(C)c2cc(CNCCc3ccc(F)cc3)ccc21 | inactive | –
27 | CN1CSC(=S)N(C)C1 | inconclusive: 39.8 µM [inhibitor, single point] | –
28 | Cc1ccccc1-n1c(O)c(/C=N/NC(=O)c2ccncc2)c(=O)[nH]c1=O | inactive | –
29 | COc1ccc(CC(=O)NC(=S)NNC(=O)COc2c(C)cccc2C)cc1 | active: 1.12 µM | –
30 | CCOc1ccc(-n2c(-c3ccoc3)nc3ccccc3c2=O)cc1 | inconclusive: 100 µM [inhibitor, single point] | –
31 | CC1CCCCN1CC(=O)c1ccc2cc[nH]c2c1 (stereo unspecified) | active: 31.6 µM | –
32 | COC(=O)c1ccc(NC(=O)NC(=O)Oc2ccccc2)cc1 | – | inactive: -12.4% [at 12.7 µM]
33 | O=P(NS(=O)(=O)c1ccccc1)(Oc1ccccc1)Oc1ccccc1 | active: 56.2 µM | –
34 | O=C1C=CC(=O)C=C1 | inconclusive: 56.2 µM [inhibitor, partial curve] | –
35 | Cc1ccc(Cl)cc1NC(=O)N(Cc1ccc2c(c1)OCO2)C1CCN(Cc2ccccc2)CC1 | inconclusive: 31.6 µM [inhibitor, single point] | –
36 | CC[C@H]1CN2CCc3cc(OC)c(OC)cc3C2C[C@@H]1C[C@H]1NCCc2cc(OC)c(OC)cc21 (stereo partly specified) | inactive | –
37 | C[N+](C)(C)CC(=O)Nc1ccc(Cl)cc1C(=O)c1ccccc1 | inconclusive: 79.4 µM [inhibitor, partial curve, poor fit] | –
38 | C#CCOc1ccc(OC)cc1C(c1c(C)[nH][nH]c1=O)c1c(C)[nH][nH]c1=O | inconclusive: 89.1 µM [inhibitor, single point] | –
39 | Cn1c(O)c(/C=N/N2CCCCC2)c(=O)[nH]c1=O | inactive | –
40 | C[n+]1cccc(C(=O)NCC2CCCO2)c1 (stereo unspecified) | inconclusive: 2 µM [inhibitor, partial curve, poor fit] | –
41 | CCOc1ccc(-c2nc3cc(NC(=O)COc4cccc(C)c4)ccc3o2)cc1 | inconclusive: 7.94 µM [inhibitor, full curve, poor fit] | –
42 | Cc1nn(-c2ccccc2)c(Cl)c1C1C(C#N)=C(N)Oc2c1c(=O)oc1ccccc21 (stereo unspecified) | inactive | –
43 | CCN(CC)C(=O)c1ccc2c(c1)C1C=CCC1C(C(=O)O)N2 (stereo unspecified) | active: 1.58 µM | –
44 | CC(=O)Nc1ccc(N(C(=O)Cn2nnc3ccccc32)C(C(=O)NC2CCCC2)c2ccc(O)c(O)c2)cc1 (stereo unspecified) | active: 50.1 µM | –
45 | COc1cccc(OC)c1C1=NCC(=O)Nc2c1oc1ccc(Br)cc21 | inconclusive: 70.8 µM [inhibitor, single point] | –
46 | Fc1ccc(CNC2CN3CCC2CC3)cc1 (stereo unspecified) | inconclusive: 56.2 µM [inhibitor, partial curve, poor fit] | –
47 | COc1ccccc1N=C1SCCCN1C | inconclusive: 89.1 µM [inhibitor, single point] | –
48 | CC12CCCCC1=[N+]([O-])CN2O (stereo unspecified) | inconclusive: 25.1 µM [inhibitor, single point] | –

Row | Structure (SMILES) | Potency | activity, negative = inhibition
49 | CC/C(=N\NC(=O)c1ccccc1)c1c(O)n(Cc2ccccc2)c(=O)[nH]c1=O | inconclusive: 50.1 µM [inhibitor, partial curve] | –
50 | CCOC(=O)c1ccc(NC(=O)CSc2cc(=O)n(CC)c3ccccc23)cc1 | inconclusive: 35.5 µM [inhibitor, single point] | –
51 | CC(C(=O)c1ccc(Cl)cc1Cl)n1cncn1 (stereo unspecified) | inconclusive: 70.8 µM [inhibitor, single point] | –
52 | O=c1[nH]c(O)c(N=Nc2ccc3c(c2)OCCO3)c(=O)[nH]1 | active: 50.1 µM | –
53 | CC(C)(C)c1csc(NC(=O)Nc2ccccc2)n1 | inconclusive: 44.7 µM [inhibitor, partial curve, poor fit] | –
54 | COc1ccc2c(c1)NP(=S)(Oc1ccccc1)N2 (stereo unspecified) | active: 7.08 µM | –
55 | C=CCn1c(O)c(C=NCCN2CCOCC2)c(=O)[nH]c1=S | inconclusive: 79.4 µM [inhibitor, single point] | –
56 | CC(C)(C)c1nc(N2CCN(C(=O)c3ccco3)CC2)c2nnn(Cc3ccccc3Cl)c2n1 | inconclusive: 39.8 µM [inhibitor, single point] | –
57 | Cc1cnc(NC(=O)CN2CCCCC2)s1 | inconclusive: 28.2 µM [inhibitor, full curve] | –
58 | CCN1C[C@]2(C)CC[C@H](OC)[C@@]34[C@@H]2[C@H](OC(C)=O)[C@]2(OCO[C@@]25C[C@@H](OC)[C@@H]2C[C@@]3(O)[C@H]5[C@@H]2OC)[C@H]14 | inactive | –
59 | COC(=O)C1=C(c2ccc(OC)c(OC)c2)C[C@@H]2CC[C@H]1N2C(=O)NCc1ccco1 | – | inactive: -1.51% [at 0.501 µM]
60 | CC1=NN=C(c2ccc(N)cc2)c2cc3c(cc2C1)OCO3 | active: 7.08 µM and active: 7.52 µM | –
61 | COc1ccc(N/N=C/c2c(O)n(-c3ccc(C)c(C)c3)c(=O)[nH]c2=O)cc1 | active: 1 µM | –
62 | CN1C(=O)C(Cc2cccc3ccccc23)C(=O)N(C)C1=O | inconclusive: 3.16 µM [inhibitor, single point] | –
63 | O=Cc1c(C(=O)O)n(Cc2ccccc2Cl)c2ccccc12 | inconclusive: 50.1 µM [inhibitor, partial curve, poor fit] | –
64 | Cc1nc2ccccc2c2c1C(=O)N(c1cccc(C(=O)O)c1)C2=O | inconclusive: 39.8 µM [inhibitor, partial curve, poor fit] | –
65 | CC12CCCCC1N(O)CN2O (stereo unspecified) | active: 7.94 µM | –
66 | CCOC(=O)c1c(NC(=O)c2ccc(OC)cc2)sc2c1CCCCC2 | inconclusive: 22.4 µM [inhibitor, single point] | –
67 | CN(C)c1ccc(CNC(=O)Cn2c(=O)oc3cc(S(=O)(=O)N4CCCCCC4)ccc32)cc1 | active: 11.2 µM | –
68 | Cc1ccc(C2N(c3cc(C)on3)C(=O)C3CCCN32)cc1 (stereo unspecified) | active: 35.5 µM | –
69 | COc1cc(C2c3cc4c(cc3C(O)C3COC(=O)C23)OCO4)cc(OC)c1O (stereo unspecified) | – | inactive: -31.8% [at 2.33 µM]
70 | CN1C(=O)N(C)C(=O)C2(Cc3cc(N)ccc3N3CCN(c4ccccc4F)CC32)C1=O (stereo unspecified) | active: 28.2 µM | –
71 | O=C(OCCN1CCOCC1)C1(c2ccccc2)CCCC1 | inconclusive: 79.4 µM [inhibitor, single point] | –

From PubChem BioAssay AID504332 (National Center for Advancing Translational Sciences (NCATS), 2011)
